{
  "source": "PubChem BioAssay AID485364",
  "about": "(National Center for Advancing Translational Sciences (NCATS), 2010)",
  "note": "The campaign covered roughly 360,000 compounds. About 11,000 (3.1%) were called active. The shares of active, inactive and inconclusive entries below differ from those in the screen. Calls come from the whole dose curve; as a rule, active = well fitted inhibition curve with a large enough effect; inconclusive = small, poorly fitted or top-dose-only effect; inactive = no such curve, though single readings can be large or run the other way. No potency is given beside an inconclusive call; the fits are too rough. Potency is the fitted concentration of half-maximal effect; tags give direction and shape of the fitted curve.",
  "data": [
    {"target": "Schistosoma mansoni thioredoxin glutathione reductase (TGR) (UniProt Q962Y6)", "assay": "qHTS Assay for the Inhibitors of Schistosoma Mansoni Peroxiredoxins; note: nearly all actives have a fitted effect of over 60% in size", "settings": "purified TGR, DTNB reduction, TNB absorbance 405 nm; series mostly up to 114 µM", "method_in_brief": "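First, TGR (20 nM dispensed) and NADPH were mixed with compound. Second, a 15 min room-temperature incubation followed. Third, further NADPH and then DTNB were added to start the reaction. Finally, TNB absorbance was monitored kinetically.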", "values": [
      {"smiles": "COc1cc2c(cc1OC)C(c1cc(OC)c(OC)cc1[N+](=O)[O-])N(C(C)=O)CC2", "note": "(stereo unspecified)", "Potency": "active: 89.1 µM"},
      {"smiles": "CNC(CC(=O)c1ccc([N+](=O)[O-])cc1)C(Cl)(Cl)Cl", "note": "(stereo unspecified)", "Potency": "active: 0.447 µM"},
      {"smiles": "COc1cc2c(cc1C1C(C#N)=C(N)OC3=C1C(=O)CC(C)(C)C3)OCO2", "note": "(stereo unspecified)", "Potency": "active: 89.1 µM"},
      {"smiles": "COc1ccc(C(NCC(=O)NC(C)c2ccc(Cl)cc2)c2ccccc2)cc1", "note": "(stereo unspecified)", "Potency": "inactive"},
      {"smiles": "C(=C\\c1ccccc1)/CSc1nnc(-c2ccccc2)n1Cc1ccco1", "Potency": "inconclusive [inhibitor, partial curve]"},
      {"smiles": "O=C(/C=C/c1ccco1)c1ccc(NC(=O)C23CC4CC(CC(C4)C2)C3)cc1", "Potency": "active: 10 µM"},
      {"smiles": "CC1(C)CC(=O)C2(CC3=C(CC(C)(C)CC3=O)O2)C(=O)C1", "Potency": "inconclusive [inhibitor, partial curve]"},
      {"smiles": "CSc1ccc(CCNC(=O)CSc2ccsc2[N+](=O)[O-])cc1", "Potency": "inconclusive [inhibitor, full curve, poor fit]"},
      {"smiles": "COC1(OC)N=C(N)C2(C#N)C(c3ccc4c(c3)OCO4)C12C#N", "note": "(stereo unspecified)", "Potency": "inconclusive [inhibitor, full curve, poor fit]"},
      {"smiles": "Cc1ccc2c(c1)nnn2C1CCN(S(=O)(=O)c2cccc(S(=O)(=O)N(C)C)c2)CC1", "Potency": "inactive"},
      {"smiles": "Cc1[nH]c2ccc(C(=O)NCCCN3CCCCCC3)cc2c1C", "Potency": "inconclusive [inhibitor, full curve]"},
      {"smiles": "CC(C)Cc1nc2oc3c(Cl)ncnc3c2c2c1CCCC2", "Potency": "inconclusive [inhibitor, partial curve]"},
      {"smiles": "CNC(C)C#Cc1ccc2sc3cccc(OC)c3c(=O)c2c1", "note": "(stereo unspecified)", "Potency": "inconclusive [inhibitor, full curve]"},
      {"smiles": "COc1ccc(-c2cn(-c3ccc(C)c(C)c3)c(=S)[nH]2)cc1OC", "Potency": "inconclusive [inhibitor, full curve]"},
      {"smiles": "Cc1ccc2oc(=O)c(/C=C(\\O)c3ccco3)nc2c1", "Potency": "inconclusive [inhibitor, partial curve]"},
      {"smiles": "O=c1[nH][nH]c(-c2ccccc2O)c1C(C[N+](=O)[O-])c1ccc(Br)cc1", "note": "(stereo unspecified)", "Potency": "inconclusive [inhibitor, partial curve]"},
      {"smiles": "O=C(CCl)Nc1cccc(S(=O)(=O)NC2=NCCC2)c1", "Potency": "active: 6.31 µM"},
      {"smiles": "C=CCn1c(COc2ccc(Cl)cc2)nnc1SCc1ccc(C#N)cc1", "Potency": "inactive"},
      {"smiles": "Cc1ccc(SCC(=O)NCc2cccnc2)cc1", "Potency": "inactive"},
      {"smiles": "Fc1ccccc1Nc1nc2ccccc2n2nnnc12", "Potency": "inactive"},
      {"smiles": "Cc1cc(Cl)ccc1N1C(=O)CC(SCCC(=O)O)C1=O", "note": "(stereo unspecified)", "Potency": "active: 39.8 µM"}
    ]}
  ]
}
